Measurements taken from patent publication US11433140B2, “Specific antibody drug conjugates (ADCs) having KSP inhibitors” (Bayer Pharma Aktiengesellschaft, priority 2016, dated 2022).

What was measured:
[1] = tested on: target-positive cells; experiment: Co-localization assay of the anti-CD123 antibodies with lysosome-specific label (FACS/image analysis); type: cell-based; conditions: CypHer5E-labelled antibody 20 μg/ml, CytoPainter LysoGreen lysosome stain
Procedure: Owing to the linker, the active metabolite of the antibody-drug conjugate is generated by lysosomal degradation. Accordingly, intracellular trafficking after internalization has taken place is of essential importance. Studies about the co-localization of the antibody using labels specific for the lysosomal organelle (e.g. surface molecules or small GTPases) allow the selection of antibodies having the desired profile. To this end, target-positive cells (5×10^4/well) in a total volume of 100 μl were sown into a 96-MTP (Greiner bio-one, CELLSTAR, 650 180, U-bottom). Following addition of the CypHer5E-labelled anti-target antibody (final concentration 20 μg/ml), the batches (duplicates per point in time) were incubated at 37° C. for 30 min, 2 h and 6 h in an incubator (5% CO2). 30 min prior to the end of the chosen incubation time, the lysosome-specific label was added to the batches to be examined. The lysosomes were stained with CytoPainter LysoGreen indicator reagent (final concentration 1:2000; abcam, ab176826). After incubation, 200 μl of ice-cold FACS buffer (DULBECCO'S PBS, Sigma-Aldrich, No. D8537+3% FBS heat inactivated FBS, Gibco, No. 10500-064) were added and the cell suspension was centrifuged at 400×g and 4° C. for 5 min. […] Co-localization was evaluated using a special software (co-localization software IDEAS Application v6.1).

[2] = tested on: MV-4-11; experiment: Growth inhibition of experimental tumours in the mouse, MV-4-11 xenograft; type: in vivo, female NMRI-nude mice; conditions: MV-4-11, 5 mg/kg i.v., Q7d × 2, day 20
Procedure: (§1) Human tumour cells which express the antigen for the antibody-drug conjugate are inoculated subcutaneously into the flank of immunosuppressed mice, for example NMRi nude or SCID mice. 1-10 million cells are detached from the cell culture, centrifuged and resuspended in medium or medium/matrigel. The cell suspension is injected under the skin of the mouse.
(§2) Within a few days, a tumour grows. Treatment is commenced after the tumour is established, at a tumour size of approximately 40 mm^2. To examine the effect on larger tumours, treatment may be initiated only at a tumour size of 50-100 mm^2.
(§3) Treatment with the ADCs is carried out via the intravenous (i.v.) route into the tail vein of the mouse. The ADC is administered in a volume of 5 ml/kg.
(§4) The treatment protocol depends on the pharmacokinetics of the antibody conjugate. Treatment was effected three times in succession every seventh day as the standard. For a quick assessment, a protocol with a single treatment may also be suitable. However, the treatment may also be continued, or a second cycle of further treatment days may follow at a later time.
(§5) As standard, 8 animals are used per treatment group. […]
(§6) During the experiment, the tumour area is measured regularly in two dimensions (length/width) using a caliper. The tumour area is determined as length×width. […]

[3] = tested on: MOLM-13; experiment: Growth inhibition of experimental tumours in the mouse, MOLM-13 xenograft; type: in vivo, female NMRI-nude mice; conditions: MOLM-13, 5 mg/kg i.v., Q7d × 2, day 14
Procedure: as §1, §2, §3, §4, §5, §6

[4] = tested on: REC-1; experiment: Growth inhibition of experimental tumours in the mouse, REC-1 xenograft; type: in vivo, female NMRI-nude mice; conditions: REC1, 10 mg/kg i.v.
Procedure: as §1, §2, §3, §4, §5, §6

B1: TPP-8988: humanized anti-CD123 antibody, heavy chain SEQ ID NO: 19, light chain SEQ ID NO: 20 (antibody)
heavy: EVQLLESGGGLVQPGGSLRLSCAVSDYSITSGYYWNWIRQAPGKKLEWMGYISYDGSNNYNPSLKNGRITISRDTSKNTFYLQMNSLRAEDTAVYYCARGEGFYFDSWGQGTLVTVSS[letters of human IgG1 constant region not shown]
light: EIVLTQSPGTLSLSPGERATLSCKSSQSLFFGSTQKNYLAWYQQKPGQAPRLLIYWASTRESGIPDRFSGSGSGTDFTLTISRLEPEDFAVYYCQQYYNYPWTFGQGTKLEIKRTVAAPSVFIFPPSDEQLKSGTASVVCLLNNFYPREAKVQWKVDNALQSGNSQESVTEQDSKDSTYSLSSTLTLSKADYEKHKVYACEVTHQGLSSPVTKSFNRGEC
modifications: Antibody Sequence
- Co-localization [%] [1]: 41%

B2: 1c-8988: ADC of Examples 1 (from Intermediate F325) with anti-CD123 antibody TPP-8988, DAR 3.5 (conjugate)
heavy: EVQLLESGGGLVQPGGSLRLSCAVSDYSITSGYYWNWIRQAPGKKLEWMGYISYDGSNNYNPSLKNGRITISRDTSKNTFYLQMNSLRAEDTAVYYCARGEGFYFDSWGQGTLVTVSS[letters of human IgG1 constant region not shown]
light: EIVLTQSPGTLSLSPGERATLSCKSSQSLFFGSTQKNYLAWYQQKPGQAPRLLIYWASTRESGIPDRFSGSGSGTDFTLTISRLEPEDFAVYYCQQYYNYPWTFGQGTKLEIKRTVAAPSVFIFPPSDEQLKSGTASVVCLLNNFYPREAKVQWKVDNALQSGNSQESVTEQDSKDSTYSLSSTLTLSKADYEKHKVYACEVTHQGLSSPVTKSFNRGEC
- T/C area [2]: 0.16
- T/C area [3]: 0.33

B3: R1x-9024: reference ADC R1 (from intermediate F104) with anti-CXCR5 antibody TPP-9024, DAR 3.7 (conjugate)
heavy: EVQLVESGGGLVQPGKSLKLSCSASGFTFSTSGMHWFRQAPGKGLDWVAYISSSSGFVYADAVKGRFTISRDNAQNTLYLQLNSLKSEDTAIYYCARSEAAFWGQGTLVTVSS[letters of human IgG1 constant region not shown]
light: DIVLTQAPRSVSVTPGESASISCRSNKSRLSRMGITPLNWYLQKPGKSPQLLIYRMSNLASGVPDRFSGSGSETDFTLKISKVETEDVGVYYCAQFLEYPPTFGSGTKLEIKRTVAAPSVFIFPPSDEQLKSGTASVVCLLNNFYPREAKVQWKVDNALQSGNSQESVTEQDSKDSTYSLSSTLTLSKADYEKHKVYACEVTHQGLSSPVTKSFNRGEC
- T/C area ([4]; Q7d × 3, day 23): 0.48

B4: 1x-9574: ADC of Examples 1 (from Intermediate F325) with anti-CXCR5 antibody TPP-9574, DAR 4.1 (conjugate)
heavy: EVQLVESGGGLIQPGGSLRLSCAASGFTFSTSGMHWFRQAPGKGLEWVAYISSSSGFVYAD[letters of about 20 residues not shown]MNSLRAEDTAVYYCARSEAAFWGQGTLVTVSS[letters of human IgG1 constant region not shown]
light: DIVMTQSPLSLPVTPGEPASISCRSQKSRLSRMGITPLNWYLQKPGQSPQLLIYRMSNLASGVPDRFSGSGSGTDFTLKISRVEAEDVGVYYCAQFLEYPPTFGQGTKLEIKRTVAAPSVFIFPPSDEQLKSGTASVVCLLNNFYPREAKVQWKVDNALQSGNSQESVTEQDSKDSTYSLSSTLTLSKADYEKHKVYACEVTHQGLSSPVTKSFNRGEC
- T/C area ([4]; Q7d × 3, day 24): 0.20
